This is an account of results in PubChem BioAssay AID488969 (Vanderbilt High Throughput Screening Facility, 2010).

Over roughly 110,000 compounds, “z-score” has its median near -0.1; the highest 2% begin near 2. Some of the results follow. Active and inactive are the calls of the source.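 The calls were made as follows: active = z-score in the third read window above 3 or below -3; inactive = the rest.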

The assay concerns the target Metabotropic glutamate receptor 8 (Rattus norvegicus) (UniProt P70579). Kind of assay: mGluR8 Gi/Go-coupled signaling modulation – cell-based, rat, thallium flux, HTS, primary screen (AID 488969). Conditions: HEK293 rat mGluR8, GIRK (G protein-gated inwardly rectifying potassium channel) thallium flux, FluoZin2; at 10 µM; stronger effect = higher value; submaximal glutamate (EC20) added with thallium.
Sequence of UniProt P70579 (P70579 whole entry, looked up): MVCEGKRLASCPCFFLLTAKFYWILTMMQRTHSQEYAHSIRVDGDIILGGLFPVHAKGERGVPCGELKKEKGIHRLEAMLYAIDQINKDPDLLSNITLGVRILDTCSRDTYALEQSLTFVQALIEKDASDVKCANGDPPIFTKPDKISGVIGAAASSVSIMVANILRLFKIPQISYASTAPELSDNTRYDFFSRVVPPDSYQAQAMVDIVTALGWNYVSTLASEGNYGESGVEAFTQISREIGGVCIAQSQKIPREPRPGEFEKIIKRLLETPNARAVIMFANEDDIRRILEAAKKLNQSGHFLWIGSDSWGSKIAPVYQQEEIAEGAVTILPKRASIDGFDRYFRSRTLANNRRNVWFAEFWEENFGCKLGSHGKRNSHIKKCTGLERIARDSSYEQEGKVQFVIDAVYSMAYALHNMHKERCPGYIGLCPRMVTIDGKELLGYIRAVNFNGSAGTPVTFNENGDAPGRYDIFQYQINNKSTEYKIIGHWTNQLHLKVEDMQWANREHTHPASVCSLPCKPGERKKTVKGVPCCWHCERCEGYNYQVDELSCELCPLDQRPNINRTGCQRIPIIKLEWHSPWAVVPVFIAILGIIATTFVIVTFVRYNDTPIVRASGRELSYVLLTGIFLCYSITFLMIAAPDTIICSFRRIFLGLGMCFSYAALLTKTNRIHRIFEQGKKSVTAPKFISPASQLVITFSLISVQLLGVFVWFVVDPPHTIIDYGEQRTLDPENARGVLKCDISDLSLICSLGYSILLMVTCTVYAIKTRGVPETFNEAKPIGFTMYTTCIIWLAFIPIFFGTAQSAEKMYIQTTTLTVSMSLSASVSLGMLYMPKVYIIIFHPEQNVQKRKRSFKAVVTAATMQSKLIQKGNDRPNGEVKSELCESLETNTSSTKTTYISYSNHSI
`COc1cc2c(cc1NC(=O)CSc1nnc(Cc3cccs3)n1C)oc1ccccc12` returned a z-score of -0.294.

`O=C(Nc1ccc2nn(-c3ccccc3)nc2c1)c1ccco1` yielded a z-score of -0.129.

In turn, `CC(C)CCOc1ccc(NC(=O)C2OC3OC(C)(C)OC3C3OC(C)(C)OC23)cc1` (stereo not given) returned a z-score of -0.118.

In turn, `CC1CCCCC1NC(=O)C1CCN(C(=O)NC2CCCCC2)CC1` (stereo not given) showed a z-score of -0.407.

In turn, `Cn1nc(C(=O)NC(C)(C)C)c2ccccc21` had a z-score of -0.198.

As to `Cc1cc(C)c(C#N)c(OCC(=O)c2ccc(Br)cc2)n1`, the z-score is -0.91.

Turning to `CC(C)CNC(=O)NC(=O)COC(=O)c1ccccc1Sc1ccc(C(F)(F)F)cc1[N+](=O)[O-]`, the z-score is -0.438.

For the compound `Oc1ccccc1Oc1ncc(Br)c(N2CCOCC2)n1`, the z-score is -1.71.

Compound `CCCCNC(=O)C(=O)N/N=C/c1ccc(OCC(=O)Nc2cccc(OC)c2)c(OC)c1` displayed a z-score of -0.318.

For `CN(C)c1ccc(/C=N\NC(=O)c2csnn2)cc1`, the z-score was -0.0845.

In turn, `COc1cccc(OC)c1OCCCOc1c(OC)cccc1OC` showed a z-score of -0.355.

As to `COc1ccc2[nH]cc(C(=O)CN3CCCCC3C)c2c1` (stereo not given), the z-score amounted to 0.245.

The compound `CN(C)CCNC(=S)Nc1ccc(Cl)cc1` registered a z-score of 0.352.

In the case of `CCOc1ccc(/C=C2\SC(=O)N(CCNC(=O)C3COc4ccccc4O3)C2=O)cc1OC` (stereo not given), the z-score is -0.337.

As for `O=C(NCCCN1CCCC1)c1ccc(CS(=O)(=O)c2ccc(Br)cc2)o1`, the z-score came out at 0.0223.

Compound `O=C(Nc1ccccc1N1CCCCC1)c1ccc(F)cc1` had a z-score of -0.361.

`O=C(CCC(=O)OCC(=O)c1ccc([N+](=O)[O-])cc1)NC1CCCCC1` yielded a z-score of 0.265.

For the compound `Cc1ccc(/C=N/Nc2nc(Cl)c(Cl)cc2Cl)s1`, the z-score was active: 3.84.

`O=C(COc1ccccc1)NCc1ccccc1` returned a z-score of -0.312.

`CCOC(=O)C1=C(C)NC(=O)NC1c1cc(C)sc1C` (stereo not given): the z-score is -0.568.

The compound `Cc1ccccc1OCC(=O)Nc1ccccc1N1CCOCC1` had a z-score of 0.605.

`COc1ccc(Nc2nc(N)nc(CSC(=S)N3CCC(C)CC3)n2)cc1`: the z-score is -0.0611.

The compound `C1=C(CCNC2=NCCCCC2)CCCC1` yielded a z-score of -1.17.

The compound `CC1CCCC(C)N1C(=O)c1cccc2c1-c1ccccc1/C2=N/O` (stereo not given) yielded a z-score of 0.252.

Consider `COc1ccc(C2=NN(C(C#N)c3ccc(OC)cc3)C(c3ccccc3)C2)cc1` (stereo not given), for which the z-score is 0.17.

In the case of `CCN1CCCC1CNCc1cc(OC)c(OC)c(OC)c1` (stereo not given), the z-score was -0.258.

`CCOC(=O)CCS(=O)(=O)c1ccc(-c2ccc(S(=O)(=O)CCC(=O)OCC)cc2)cc1` gave a z-score of 0.172.

In the case of `Cc1nc2ccccc2c(=O)[nH]1`, the z-score was -0.21.

Turning to `Cc1cc(=O)oc2cc(OCC(=O)N/N=C/c3ccccc3[N+](=O)[O-])ccc12`, the z-score is -0.0875.

`COc1ccc(-c2cc(C(=O)N3CCN(c4ccccc4)CC3)c3ccccc3n2)cc1OC`: the z-score was -0.469.

As for `N#CC1=C(N)N2C(=C(C#N)C1c1cccc(Br)c1)Nc1ccccc12` (stereo not given), the z-score was -0.247.

`COc1cc(OC)c(C2C(C(=O)Nc3ccc(C)cc3C)=C(C)Nc3ncnn32)cc1OC` (stereo not given) came in with a z-score of -0.313.

In turn, `O=C(NCc1cccc(Cl)c1)c1ccco1` returned a z-score of 0.49.

In turn, `O=C(CSc1nnc(NC(=O)C2CCC2)s1)Nc1ccc(N2CCOCC2)cc1` yielded a z-score of -0.322.

On to `Cc1ccc(CNn2cnnc2SCC(=O)NC(C)(C)C)cc1`, for which the z-score is 0.231.

For `O=C1NC(c2ccc3c(c2)OCO3)Nc2ccccc21` (stereo not given), the z-score was 0.0106.

Regarding `O=C(NCc1cccs1)C1CCCN1S(=O)(=O)c1ccccc1F` (stereo not given), the z-score stood at 0.638.

For `CC(C)OCCCNc1nc2c(c(=O)n(Cc3ccccc3F)c(=O)n2C)n1C`, the z-score was -0.455.

Compound `COc1cc(/C=N/NC(=O)c2cc3ccccc3cc2O)ccc1OCCN1CCCCC1` yielded a z-score of -0.0725.

Consider `O=C(OCCN1CCOCC1)c1ccc2c(c1)OCCO2`, for which the z-score came out at 0.587.

In the case of `O=C(c1ccccc1)N1CCN(c2ccc(Cl)cc2)CC1`, the z-score was -0.0255.

`COc1cc(NS(=O)(=O)c2ccc(NC(=S)NC(=O)CC(C)C)cc2)nc(OC)n1` returned a z-score of 0.0151.

For the compound `Cc1ccc(S(=O)(=O)N(C)/C(=N/S(=O)(=O)c2ccccc2)c2ccccc2)cc1`, the z-score was -0.162.

Compound `Cc1nn2c(N3CCCC3)cc(C(C)C)nc2c1-c1ccccc1` registered a z-score of -0.954.

For `Cc1ccc(C2c3c(oc4ccccc4c3=O)C(=O)N2CCCN2CCOCC2)o1` (stereo not given), the z-score was determined as 0.634.

`COc1cccc(-c2nc(CS(=O)(=O)CC(=O)N3CCN(C)CC3)c(C)o2)c1` yielded a z-score of 0.772.

Take `CC(C)Cn1c(-c2cccs2)nc2ccccc21`: the z-score was -0.0473.

For the compound `NC(=O)c1ccc[n+](Cc2cccc3ccccc23)c1`, the z-score is 0.0662.

`CC1CCCCN1CCNC(=O)C1CCN(S(=O)(=O)c2cccc3cccnc23)CC1` (stereo not given) had a z-score of 0.0318.

`Cc1ccc(CNC(=O)c2cc3c(-c4ccc(Cl)cc4)nn(C)c3s2)o1` showed a z-score of -0.335.

The compound `COc1cccc(NC(=O)COc2ccc(N3CC(C(=O)NCC(C)C)CC3=O)cc2)c1` (stereo not given) came in with a z-score of 1.32.

The compound `Cc1nn(CCCC(=O)NCc2ccc(F)cc2)c(C)c1[N+](=O)[O-]` displayed a z-score of -0.182.

Turning to `O=C(C1CCCN(S(=O)(=O)c2cnc[nH]2)C1)N1CCN(Cc2ccccc2)CC1` (stereo not given), the z-score came out at 0.522.

As for `CCCCOC(=O)Nc1ccc(C(=O)OCCC)cc1`, the z-score is active: 3.09.

Regarding `COc1ccc(C2=NOC(C(=O)Nc3cc(C)on3)C2)cc1` (stereo not given), the z-score was -0.0706.

Regarding `COc1ccc(/C=C2\NC(=S)N(CC3CCCO3)C2=O)c(OC)c1` (stereo not given), the z-score came out at 0.39.

For `O=C(NCC1CCCCC1)c1ccco1`, the z-score was -0.427.

On to `C=CCn1c(SCC(=O)Nc2ccccc2OC)nnc1-c1ccco1`, for which the z-score was -0.908.

Take `COc1ccc(-n2nnnc2SCC(=O)Nc2nc3c(s2)CCCC3)cc1`: the z-score is -0.483.

In turn, `COC(=O)c1c(NC(=O)CSc2nnnn2-c2ccccc2)sc2c1CCC(C(C)(C)C)C2` (stereo not given) registered a z-score of -0.586.

In the case of `O=C(Cc1cccc2ccccc12)Nc1nc(-c2cccc([N+](=O)[O-])c2)cs1`, the z-score was -0.19.

As to `Cc1ccc2[nH]c(=O)c3cc(C(=O)N(CCCOC(C)C)Cc4ccco4)sc3c2c1`, the z-score is -0.0585.

`COc1ccc(N2CCN(C(=O)CCCn3c(=O)[nH]c4cc(Cl)ccc4c3=O)CC2)cc1`: the z-score is -0.308.

The compound `Cc1ccc(C)c2[nH]c(=O)c(CCNC(=O)C(C)(C)C)cc12` yielded a z-score of 0.538.

Consider `CCn1c(NCc2cc(Br)ccc2NS(=O)(=O)c2ccc(C)cc2)nc2ccccc21`, for which the z-score was -0.0838.

`Nc1nc(-c2ccco2)nn1C(=O)CCc1ccccc1`: the z-score was -0.219.

In turn, `CCCCn1c(CNC(=O)CCC)nc2ccccc21` displayed a z-score of -0.174.

The compound `CCOc1cc(S(=O)(=O)N2CCN(Cc3ccccc3)CC2)ccc1Br` showed a z-score of 0.445.

Regarding `CCOc1ccccc1NC(=O)CN(Cc1ccccc1)S(C)(=O)=O`, the z-score was found to be 0.176.

Turning to `Cc1cc2c(c(=O)n1Cc1ccco1)C(c1ccccc1)C(C#N)=C(N)O2` (stereo not given), the z-score amounted to 0.255.

Turning to `COc1ccccc1N1CCN(C(=O)c2cccc(N3C(=O)NC4CC3(C)Oc3ccccc34)c2)CC1` (stereo not given), the z-score was -0.212.

As to `Cc1cccc(NC(=O)CN2NS(=O)(=O)c3ccccc3C2=O)c1`, the z-score was 0.0291.

Consider `Cc1ccc(F)cc1NC(=O)c1cccc(N(C)C)c1`, for which the z-score was -0.421.

Compound `COc1ccc(NC(=O)c2c(F)c(F)c(F)c(F)c2F)cc1Cl` came in with a z-score of -0.25.

`Cc1nc(-c2cccc(NC(=O)c3cc4cc(Br)ccc4oc3=O)c2)cs1` yielded a z-score of -0.0458.

Turning to `CCOc1ccc(CCNC(=O)C2CCCN(C(=O)N(C)C)C2)cc1OCC` (stereo not given), the z-score is -0.88.

Take `CCOC(=O)C(=CNc1cccc(C)c1C)C(=O)OCC`: the z-score is -0.999.

On to `C/C(=N\NC(=O)COc1ccc(C(C)(C)C)cc1)c1ccc2c(c1)OCCO2`, for which the z-score was -0.171.

As to `Cc1cc2nc(CCN(Cc3cccnc3)C(=S)Nc3ccccc3)[nH]c2cc1C`, the z-score was found to be 0.259.

Turning to `Cc1c(NC(=O)C2C3C=CC(C3)C2C(=O)O)c(=O)n(-c2ccccc2)n1C` (stereo not given), the z-score worked out at 0.15.

As to `O=C(CCSc1ccccn1)Nc1ccc(Br)cc1`, the z-score was 1.4.

In the case of `Cc1ncc([N+](=O)[O-])n1CCOC(=O)NC(NCc1ccccc1Cl)C(Cl)(Cl)Cl` (stereo not given), the z-score was -0.331.

In turn, `CCOc1ccc2nc(NC(=S)N(C)C)sc2c1` returned a z-score of -0.436.

The compound `COc1ccc(NC2=C(Cl)C(=O)N(CCc3ccccc3)C2=O)cc1` yielded a z-score of 1.27.

Turning to `COc1ccccc1N1CCN(C(=O)c2cc(-c3cccc(Cl)c3)on2)CC1`, the z-score was determined as 0.0644.

In the case of `COC(=O)c1sc2nc(N)c(C#N)cc2c1N`, the z-score was -0.176.

In the case of `CCCCCn1c(CN2CCN(C(=O)OCC)CC2)nc2c1c(=O)n(C)c(=O)n2C`, the z-score was 0.133.

`CCN(CC)C(=O)CSc1nnc(-c2ccco2)n1N` gave a z-score of -0.108.

The compound `Cc1ccc(CSCC(=O)N2CCOCC2)cc1` registered a z-score of -0.102.

In turn, `COC(=O)C1C(=O)C2=C(CC1C)NC(C)=C(C(=O)OC1CCCCC1)C2c1ccc(N(C)C)cc1` (stereo not given) showed a z-score of 0.0832.

Compound `Cc1ccc(C)c(NC(=O)CCC(=O)NNC(=O)C(c2ccccc2)c2ccccc2)c1` returned a z-score of -0.193.

Consider `CC(C)(C)n1nnnc1C(c1cccnc1)N(Cc1ccccc1)Cc1cccs1` (stereo not given), for which the z-score was 0.191.

The compound `CCCNC(=O)CCc1cc(C(C)(C)C)c(O)c(C(C)(C)C)c1` displayed a z-score of -0.319.

Consider `CCn1c(O)c(/C=C2\C=NN=C2c2ccc(C)cc2)sc1=S`, for which the z-score worked out at 0.0782.

On to `CN(CCO)C(=O)CCC(=O)Nc1ccc(S(N)(=O)=O)cc1`, for which the z-score worked out at 0.00817.

For the compound `CCOc1ccc(S(=O)(=O)Nc2cccc(Cl)c2)cc1`, the z-score was 0.395.

`O=C(Nc1cccc(C(F)(F)F)c1)c1cccnc1NCCc1ccccc1` showed a z-score of -0.14.

As to `CN(C)c1nc(NCc2ccccc2)nc(N/N=C/c2ccc(Cl)cc2Cl)n1`, the z-score is 0.245.

The compound `Cc1cc(Nc2ccc3c(c2)OCCO3)c2ccccc2n1` registered a z-score of 0.143.

The compound `O=C(O)CN1C(=O)c2ccc(Oc3cccc4c3C(=O)N(CC(=O)O)C4=O)cc2C1=O` had a z-score of 0.0985.

For `CC(C)C(=O)NC(C)C(c1cccs1)N1CCN(C)CC1` (stereo not given), the z-score was determined as 0.199.

As for `N#CCCN(C(=O)CSc1ccc2c(c1)OCCO2)c1ccc(F)cc1`, the z-score was -0.0814.

As for `COCCN(C(=S)Nc1ccccc1OC)C(C)c1cccs1` (stereo not given), the z-score was -0.973.

Turning to `CCCc1nc2ccccc2c2nc(N)nn12`, the z-score was found to be 0.102.

Compound `CCC(C)Sc1nc2ccccc2n1CC(=O)O` (stereo not given) returned a z-score of -0.147.

As to `CCC(=O)Nc1nc2nc(C)cc(=O)n2[nH]1`, the z-score was -0.0896.

Consider `O=C(NCc1ccccc1)C(Cc1ccccc1)N1C(=O)C2C3CCC(C3)C2C1=O` (stereo not given), for which the z-score is -0.034.

In the case of `Cc1ccc(NC(=O)NNC(=O)C2CC(c3cccnc3)=NO2)cc1` (stereo not given), the z-score was -0.193.

`CCCCN(C)CCNC(=O)Cn1c(=O)sc2ccccc21` had a z-score of 0.251.

The compound `Cc1ccc(NC(=O)Cn2c(=O)n(CCCCC(=O)NCc3ccco3)c(=O)c3ccccc32)cc1` came in with a z-score of -0.29.
